# Assay results as given in the supplement of paper PMC8183993.
# Where “and” joins values, the source holds several entries; their conditions need not be identical. Equal values may be shown once. Where a name gives a salt, the structure may show the parent alone. ± gives the standard deviation of the averaged measurements. In all, about 3,100 compounds were measured (“mean cytoplasmic OPP incorporation (global translation) relative to DMSO”: median about 100, lowest 2% from about 56 on). This is one part of the list.
# Tested on: U2OS
# Test: mean cytoplasmic OPP incorporation (global translation) relative to DMSO (% of DMSO); higher = more protein synthesis
# Details: 10 µM; 24 h
# Protocol: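 Primary image-based screen in U2OS cells: compounds at 10 uM for 24 h, then a 1 h o-propargyl-puromycin (OPP) pulse, click labelling, and high-throughput microscopy. Mean cytoplasmic OPP intensity and nuclei count were normalised to DMSO wells within each plate (DMSO = 100) and averaged over triplicate plates.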
row,Compound,mean cytoplasmic OPP incorporation
1,CO[C@H]1/C=C\C=C(/C)C(=O)NC2=CC(=O)C(NCCN(C)C)=C(C[C@@H](C)C[C@H](OC)[C@H](O)[C@@H](C)/C=C(\C)[C@@H]1OC(N)=O)C2=O [17-DMAG HCl (Alvespimycin)],73.7
2,O=C(N[C@H](CO)[C@H](O)c1ccc([N+](=O)[O-])cc1)C(Cl)Cl [Chloramphenicol],101
3,Cn1cnc2c1c(=O)[nH]c(=O)n2C [Theobromine],105
4,CC1=NN(c2ccccc2)C(=O)C1,99.9 ± 2.1
5,CCN(CC)CCNC(=O)c1cc(Cl)c(N)cc1OC [Metoclopramide monohydrochloride],104
6,CCOc1ccc2ccccc2c1C(=O)N[C@@H]1C(=O)N2[C@@H]1SC(C)(C)[C@@H]2C(=O)O [Nafcillin sodium salt monohydrate],103
7,CN(C)C/C=C(/c1ccc(Br)cc1)c1cccnc1 [Zimelidine dihydrochloride monohydrate],93.4
8,CN(C)C/C=C(/c1ccc(Br)cc1)c1cccnc1 [Zimelidine dihydrochloride],98.4
9,CC(C)(CO)C(O)C(=O)NCCCO (centres undefined) [Panthenol (D)],101
10,COc1cc2c(Oc3ccc(NC(=O)C4(C(=O)Nc5ccc(F)cc5)CC4)cc3F)ccnc2cc1OCCCN1CCOCC1,92.5
11,CC1=CC(=O)C(C(C)C)=CC1=O [Thymoquinone],94
12,O=C(/C=C/c1ccc(O)cc1)CC(=O)/C=C/c1ccc(O)cc1 [bis-demethoxycurcumin],121
13,C[S+]([O-])c1ccc(-c2nc(-c3ccc(F)cc3)c(-c3ccncc3)[nH]2)cc1 (centres undefined),100 and 96.3
14,COc1ccccc1Oc1c(NS(=O)(=O)c2ccc(C(C)(C)C)cc2)nc(-c2ncccn2)nc1OCCO [Bosentan],115
15,Nc1ccccc1S(N)(=O)=O [2-Aminobenzenesulfonamide],107
16,CN(C)CCC=C1c2ccccc2COc2ccccc21 [Doxepin hydrochloride],90.4 ± 1.3
17,CN1CCC[C@@H]1Cc1c[nH]c2ccc(CCS(=O)(=O)c3ccccc3)cc12 [Eletriptan hydrobromide],109
18,CC(C)[N+](C)(CCOC(=O)C1c2ccccc2Oc2ccccc21)C(C)C [Propantheline bromide],105
19,COc1ccc(NS(=O)(=O)c2sc3ccc(Cl)cc3c2C)cc1N1CCNCC1,106
20,COc1ccc(-c2cc(=S)ss2)cc1 [Anethole-trithione],86.1

row,Compound,mean cytoplasmic OPP incorporation
1,COc1ccc(-c2cc(=S)ss2)cc1 [Anethole trithione],107
2,C#CCN[C@@H]1CCc2ccccc21 [Rasagiline mesylate],98.3
3,C1COC(NC(C2CC2)C2CC2)=N1 [Rilmenidine],108
4,C1COC(NC(C2CC2)C2CC2)=N1 [Rilmenidine hemifumarate],97.6
5,N#C/C(=C\c1ccc(O)c(O)c1)C(=O)OCCc1cccs1,97.3
6,COc1cc(OC2CCN(C)CC2)ccc1Nc1ncc2c(n1)n(C1CCCC1)c(=O)n2C,112
7,CCOc1nc2cccc(C(=O)OCc3oc(=O)oc3C)c2n1Cc1ccc(-c2ccccc2-c2noc(=O)[nH]2)cc1 [Azilsartan Medoxomil (TAK-491)],101
8,OC[C@H]1O[C@@H](n2cnc3c(NC4CCCC4)ncnc32)[C@H](O)[C@@H]1O [N6-Cyclopentyladenosine],105
9,O=C(O)c1cn(C2CC2)c2cc(N3CCNCC3)c(F)cc2c1=O [Ciprofloxacin hydrochloride monohydrate],102
10,CC1(C)CCC(C)(C)c2cc(C3(c4ccc(C(=O)O)cc4)OCCO3)ccc21,107
11,CC(C)NCC(O)COc1ccc(CCOCC2CC2)cc1 (centres undefined) [Betaxolol hydrochloride],101 ± 3.1
12,Cc1c(C(=O)NN2CCCCC2)nn(-c2ccc(Cl)cc2Cl)c1-c1ccc(I)cc1,98.1
13,CCc1nc(N)nc(N)c1-c1ccc(Cl)cc1 [Pyrimethamine],77.5
14,CC(=O)[C@@]1(O)CC[C@H]2[C@@H]3C[C@H](C)C4=CC(=O)C=C[C@]4(C)[C@@]3(F)[C@@H](O)C[C@@]21C [Fluorometholone],89.7
15,CCN(C(=O)c1c(O)c2c(Cl)cccc2n(C)c1=O)c1ccccc1,102
16,CN1CC(=O)N2[C@H](c3ccc4c(c3)OCO4)c3[nH]c4ccccc4c3C[C@@H]2C1=O [Tadalafil (Cialis)],104
17,C1CCC(C(CC2CCCCN2)C2CCCCC2)CC1 (centres undefined) [Perhexiline maleate],53
18,CC(NC(=O)c1ccccc1/N=C/c1c(O)ccc2ccccc12)c1ccccc1 (centres undefined) [Sirtinol],95.78 ± 0.67
19,Cc1cccc(-c2[nH]c(C(C)(C)C)nc2-c2ccc3c(c2)OCO3)n1,96.4
